Test [1] concerns the target T1, hTTP 150-326 two-hybrid bait (human) (UniProt P26651).
T1 sequence: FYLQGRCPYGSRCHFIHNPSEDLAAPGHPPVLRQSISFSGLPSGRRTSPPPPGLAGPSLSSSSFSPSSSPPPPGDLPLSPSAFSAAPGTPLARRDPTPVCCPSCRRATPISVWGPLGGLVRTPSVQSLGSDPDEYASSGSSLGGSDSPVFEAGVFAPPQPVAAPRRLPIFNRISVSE
Put plainly: two-hybrid; automated ProNet screen (Myriad Genetics); hTTP fragments fused to the Gal4 DNA binding domain as baits, mated with Gal4 activation domain libraries (human spleen, brain, mixed breast/prostate cancer cell lines); selection on -Trp -Leu -His -Ade; confirmed by liquid beta-galactosidase assays; some screens with ARE RNA expressed.

Amino acid sequences for entries named in this document (tags omitted). A change or cut given only in a name is not applied to a line headed by its entry. Residues count along the entry.
UniProt Q96B97: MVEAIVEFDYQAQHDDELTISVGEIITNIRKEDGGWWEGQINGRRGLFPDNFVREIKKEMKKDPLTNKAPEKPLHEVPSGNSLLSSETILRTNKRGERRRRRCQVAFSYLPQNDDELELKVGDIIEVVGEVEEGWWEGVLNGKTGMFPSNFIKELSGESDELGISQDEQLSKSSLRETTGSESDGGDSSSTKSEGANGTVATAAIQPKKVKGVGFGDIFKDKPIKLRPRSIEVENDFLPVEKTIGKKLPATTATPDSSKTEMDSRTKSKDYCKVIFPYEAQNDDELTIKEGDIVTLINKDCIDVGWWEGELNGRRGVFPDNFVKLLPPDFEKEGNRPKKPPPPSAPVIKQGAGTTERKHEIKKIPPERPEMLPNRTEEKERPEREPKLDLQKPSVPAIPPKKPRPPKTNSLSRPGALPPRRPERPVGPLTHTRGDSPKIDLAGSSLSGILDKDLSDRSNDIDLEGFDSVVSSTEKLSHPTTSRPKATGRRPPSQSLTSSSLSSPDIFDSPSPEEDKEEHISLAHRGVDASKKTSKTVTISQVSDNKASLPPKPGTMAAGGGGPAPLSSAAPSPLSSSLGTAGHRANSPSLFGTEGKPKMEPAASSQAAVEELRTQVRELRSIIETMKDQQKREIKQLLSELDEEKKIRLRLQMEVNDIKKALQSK
CIN85 4-450 two-hybrid prey: residues 4-450 of Q96B97
CIN85 4-264 two-hybrid prey: residues 4-264 of Q96B97
UniProt P19338, residues 375-692: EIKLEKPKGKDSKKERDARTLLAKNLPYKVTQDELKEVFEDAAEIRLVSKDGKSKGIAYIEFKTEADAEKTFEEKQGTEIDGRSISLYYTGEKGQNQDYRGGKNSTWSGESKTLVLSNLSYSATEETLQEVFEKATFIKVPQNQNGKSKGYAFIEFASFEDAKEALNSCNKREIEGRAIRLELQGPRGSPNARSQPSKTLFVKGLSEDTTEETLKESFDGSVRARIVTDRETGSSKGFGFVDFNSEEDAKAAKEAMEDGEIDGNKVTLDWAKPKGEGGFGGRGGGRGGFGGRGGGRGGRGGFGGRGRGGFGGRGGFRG
PABPC1 1-246 two-hybrid prey (P11940, residues 1-246): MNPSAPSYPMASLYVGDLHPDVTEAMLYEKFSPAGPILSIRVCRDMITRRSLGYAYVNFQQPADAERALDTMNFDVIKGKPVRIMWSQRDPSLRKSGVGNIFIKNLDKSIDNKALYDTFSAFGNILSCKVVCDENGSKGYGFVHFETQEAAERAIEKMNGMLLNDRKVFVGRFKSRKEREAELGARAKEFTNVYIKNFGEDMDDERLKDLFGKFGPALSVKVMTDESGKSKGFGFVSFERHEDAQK
PABPC1 79-400 two-hybrid prey (P11940, residues 79-400): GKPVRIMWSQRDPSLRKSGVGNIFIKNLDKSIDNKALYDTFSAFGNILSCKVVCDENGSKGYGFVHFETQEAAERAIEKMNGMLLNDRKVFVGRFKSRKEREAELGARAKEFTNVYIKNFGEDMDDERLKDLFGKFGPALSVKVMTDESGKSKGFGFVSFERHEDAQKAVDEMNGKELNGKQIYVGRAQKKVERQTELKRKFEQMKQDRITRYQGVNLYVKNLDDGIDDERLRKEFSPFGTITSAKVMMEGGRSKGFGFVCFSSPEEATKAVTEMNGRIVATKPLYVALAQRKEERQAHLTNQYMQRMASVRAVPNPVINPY
PABPC1 95-408 two-hybrid prey (P11940, residues 95-408): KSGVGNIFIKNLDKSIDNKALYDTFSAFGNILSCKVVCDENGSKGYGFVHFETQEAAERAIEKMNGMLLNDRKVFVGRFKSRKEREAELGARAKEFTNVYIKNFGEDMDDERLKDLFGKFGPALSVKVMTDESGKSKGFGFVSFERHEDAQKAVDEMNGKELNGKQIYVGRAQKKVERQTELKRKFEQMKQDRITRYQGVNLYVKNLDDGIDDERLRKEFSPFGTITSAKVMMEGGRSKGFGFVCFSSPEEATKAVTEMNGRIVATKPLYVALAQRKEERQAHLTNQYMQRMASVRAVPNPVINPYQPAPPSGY
PABPC1 99-422 two-hybrid prey (P11940, residues 99-422): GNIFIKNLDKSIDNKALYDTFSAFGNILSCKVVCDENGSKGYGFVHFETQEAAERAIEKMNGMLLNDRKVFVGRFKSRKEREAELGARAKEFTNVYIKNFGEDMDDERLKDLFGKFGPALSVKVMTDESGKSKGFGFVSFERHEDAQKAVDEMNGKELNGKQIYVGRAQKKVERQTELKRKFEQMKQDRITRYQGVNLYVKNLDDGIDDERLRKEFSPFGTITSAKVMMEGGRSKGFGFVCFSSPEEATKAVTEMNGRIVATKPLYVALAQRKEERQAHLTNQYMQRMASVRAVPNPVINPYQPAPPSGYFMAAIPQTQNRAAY
PABPC1 100-309 two-hybrid prey (P11940, residues 100-309): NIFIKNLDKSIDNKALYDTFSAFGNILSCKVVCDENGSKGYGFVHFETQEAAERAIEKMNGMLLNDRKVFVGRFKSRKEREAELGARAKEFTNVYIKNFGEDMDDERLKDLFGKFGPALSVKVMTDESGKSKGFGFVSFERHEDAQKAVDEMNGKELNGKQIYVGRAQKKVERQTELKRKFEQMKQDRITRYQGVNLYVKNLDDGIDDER
PABPC1 178-466 two-hybrid prey (P11940, residues 178-466): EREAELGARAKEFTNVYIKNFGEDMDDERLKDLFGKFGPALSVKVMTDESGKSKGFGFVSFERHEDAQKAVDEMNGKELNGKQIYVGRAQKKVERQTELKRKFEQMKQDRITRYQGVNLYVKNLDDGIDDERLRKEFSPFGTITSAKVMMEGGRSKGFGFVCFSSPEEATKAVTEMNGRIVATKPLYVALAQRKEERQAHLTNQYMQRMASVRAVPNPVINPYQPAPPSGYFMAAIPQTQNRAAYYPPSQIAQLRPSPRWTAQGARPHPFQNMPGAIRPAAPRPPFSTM
PABPC1 187-482 two-hybrid prey (P11940, residues 187-482): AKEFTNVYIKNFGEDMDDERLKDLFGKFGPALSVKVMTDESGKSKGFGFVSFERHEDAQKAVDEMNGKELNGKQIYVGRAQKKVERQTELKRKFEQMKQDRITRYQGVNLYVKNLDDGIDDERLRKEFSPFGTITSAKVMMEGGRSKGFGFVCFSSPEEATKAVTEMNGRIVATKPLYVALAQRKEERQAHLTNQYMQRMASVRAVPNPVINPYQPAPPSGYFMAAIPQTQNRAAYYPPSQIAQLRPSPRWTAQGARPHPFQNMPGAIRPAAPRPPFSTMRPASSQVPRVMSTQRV
PABPC1 236-399 two-hybrid prey (P11940, residues 236-399): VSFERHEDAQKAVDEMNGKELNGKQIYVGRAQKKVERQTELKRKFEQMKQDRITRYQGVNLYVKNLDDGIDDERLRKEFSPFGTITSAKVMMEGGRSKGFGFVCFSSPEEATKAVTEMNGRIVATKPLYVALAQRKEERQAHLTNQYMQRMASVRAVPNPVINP

Test [2] deals with T2, hTTP 223-326 two-hybrid bait (human) (UniProt P26651).
T2 sequence: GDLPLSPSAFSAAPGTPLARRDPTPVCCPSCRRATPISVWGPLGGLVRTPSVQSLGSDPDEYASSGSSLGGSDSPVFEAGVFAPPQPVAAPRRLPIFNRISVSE
The description is as above.

The target in test [3] is Flag-tagged human CIN85 (Flag-CIN85), full length (human) (UniProt Q96B97). Put plainly: co-IP; HEK 293 cells transfected with HA- and Flag-tagged constructs (or endogenous partner); 1 mg protein of RIPA extract, treated with RNase; anti-FLAG or anti-HA monoclonal antibody overnight at 4 °C, protein A Sepharose; western blot. In general terms: Immunoblotting shows a protein as a band on a membrane.

The target of test [4] is Flag-tagged human tristetraprolin (Flag-hTTP) (human) (UniProt P26651). Described as above.
Test [5] concerns the target hTTP 90-180 two-hybrid bait (human) (UniProt P26651). The experiment in a line: two-hybrid; automated ProNet screen (Myriad Genetics); hTTP fragments fused to the Gal4 DNA binding domain as baits, mated with Gal4 activation domain libraries (human spleen, brain, mixed breast/prostate cancer cell lines); selection on -Trp -Leu -His -Ade; confirmed by liquid beta-galactosidase assays; some screens with ARE RNA expressed.

Test [6] has as its target Flag-tagged human tristetraprolin (Flag-hTTP) (human) (UniProt P26651). Put plainly: co-IP; HEK 293 cells transfected with HA- and Flag-tagged constructs (or endogenous partner); 1 mg protein of RIPA extract, treated with RNase; anti-FLAG or anti-HA monoclonal antibody overnight at 4 °C, protein A Sepharose; western blot. The source holds these as a separate data set.
Test [7] has as its target Flag-tagged human CIN85 (Flag-CIN85), full length (human) (UniProt Q96B97). The test is described as above. This is another data set of the same source.
Test [8] addresses HA-tagged human CIN85 (HA-CIN85), full length (human) (UniProt Q96B97). Described as above.

Like-named read-outs stand apart in the source and are kept apart here. Results are given in words; binding and its absence hold for the method and conditions named. For some assays here: In cells and extracts the contact can be indirect. Some entries that bind do so weakly or less than the wild type. For some assays here: Where a sequence is shown, tags or fusion partners need not be part of it.

This passage reports binding results from publication PMC2833206.

With “CIN85 4-264 two-hybrid prey (from UniProt Q96B97-1 4-264) (domain or fragment)”, the binding result in test [1] and in test [2] was “binds” in each case. With “CIN85 4-450 two-hybrid prey (from UniProt Q96B97-1 4-450) (domain or fragment)”, the binding result in test [1] and in test [2] was “binds” in each case.

“HA-hTTP 1-290 (from UniProt P26651 1-290) (domain or fragment)”: in test [3], the binding result was “no binding”.

Regarding “HA-hTTP 1-313 (from UniProt P26651 1-313) (domain or fragment)”, the binding entry in test [3] is “no binding”.

As to “HA-hTTP 1-319 (from UniProt P26651 1-319) (domain or fragment)”, the binding entry in test [3] is given as “binds”. On to “HA-hTTP 1-322 (from UniProt P26651 1-322) (domain or fragment)”, for which, in test [3], the binding result is “binds”. Turning to “HA-tagged mitogen-activated protein kinase kinase kinase 4 (HA-MEKK4) (from UniProt Q9Y6R4-1 1-1608) (enzyme)”, the binding result in test [3] and in test [4] was “binds” in each case. Take “Nucleolin 375-692 two-hybrid prey (from UniProt P19338 375-692) (domain or fragment)”: the binding entry in test [5] was “binds”. On to “PABPC1 1-246 two-hybrid prey (from UniProt P11940-1 1-246) (domain or fragment)”, for which the binding result in test [5] is recorded as “binds”. On to “PABPC1 79-400 two-hybrid prey (from UniProt P11940-1 79-400) (domain or fragment)”, for which the binding result in test [5] is given as “binds”.

Regarding “PABPC1 95-408 two-hybrid prey (from UniProt P11940-1 95-408) (domain or fragment)”, the binding result in test [5] is listed as “binds”. Still for that read-out and setting: under “PABPC1 99-422 two-hybrid prey (from UniProt P11940-1 99-422) (domain or fragment)” stands “binds”. In the case of “PABPC1 100-309 two-hybrid prey (from UniProt P11940-1 100-309) (domain or fragment)”, the binding result in test [5] is recorded as “binds”.

On to “PABPC1 178-466 two-hybrid prey (from UniProt P11940-1 178-466) (domain or fragment)”, for which, in test [5], the binding entry is “binds”.

For the molecule “PABPC1 187-482 two-hybrid prey (from UniProt P11940-1 187-482) (domain or fragment)”, the binding result in test [5] is on record as “binds”. Consider “PABPC1 236-399 two-hybrid prey (from UniProt P11940-1 236-399) (domain or fragment)”, for which the binding entry in test [5] is given as “binds”.

B1: HA-tagged human MARCKS (HA-MARCKS) (protein, UniProt P29966 1-332)
chain: MGAQFSKTAAKGEAAAERPGEAAVASSPSKANGQENGHVKVNGDASPAAAESGAKEELQANGSAPAADKEEPAAAGSGAASPSAAEKGEPAAAAAPEAGASPVEKEAPAEGEAAEPGSPTAAEGEAASAASSTSSPKAEDGATPSPSNETPKKKKKRFSFKKSFKLSGFSFKKNKKEAGEGGEAEAPAAEGGKDEAAGGAAAAAAEAGAASGEQAAAPGEEAAAGEEGAAGGDPQEAKPQEAAVAPEKPPASDETKAAEEPSKVEEKKAEEAGASAAACEAPSAAGPGAPPEQEAAPAEEPAAAAASSACAAPSQEAQPECSPEAPPAEAAE
On to B1, for which the binding result in test [6] was “no binding”.

B2: human ZFP36L2 (hZFP36L2), full length, epitope-tagged (protein, UniProt P47974 1-494)
chain: MSTTLLSAFYDVDFLCKTEKSLANLNLNNMLDKKAVGTPVAAAPSSGFAPGFLRRHSASNLHALAHPAPSPGSCSPKFPGAANGSSCGSAAAGGPTSYGTLKEPSGGGGTALLNKENKFRDRSFSENGDRSQHLLHLQQQQKGGGGSQINSTRYKTELCRPFEESGTCKYGEKCQFAHGFHELRSLTRHPKYKTELCRTFHTIGFCPYGPRCHFIHNADERRPAPSGGASGDLRAFGTRDALHLGFPREPRPKLHHSLSFSGFPSGHHQPPGGLESPLLLDSPTSRTPPPPSCSSASSCSSSASSCSSASAASTPSGAPTCCASAAAAAAAALLYGTGGAEDLLAPGAPCAACSSASCANNAFAFGPELSSLITPLAIQTHNFAAVAAAAYYRSQQQQQQQGLAPPAQPPAPPSATLPAGAAAPPSPPFSFQLPRRLSDSPVFDAPPSPPDSLSDRDSYLSGSLSSGSLSGSESPSLDPGRRLPIFSRLSISDD
Consider B2, for which, in test [7], the binding entry is “no binding”.

B3: human ZFP36L1 (hZFP36L1), full length, epitope-tagged (protein, UniProt Q07352 1-338)
chain: MTTTLVSATIFDLSEVLCKGNKMLNYSAPSAGGCLLDRKAVGTPAGGGFPRRHSVTLPSSKFHQNQLLSSLKGEPAPALSSRDSRFRDRSFSEGGERLLPTQKQPGGGQVNSSRYKTELCRPFEENGACKYGDKCQFAHGIHELRSLTRHPKYKTELCRTFHTIGFCPYGPRCHFIHNAEERRALAGARDLSADRPRLQHSFSFAGFPSAAATAAATGLLDSPTSITPPPILSADDLLGSPTLPDGTNNPFAFSSQELASLFAPSMGLPGGGSPTTFLFRPMSESPHMFDSPPSPQDSLSDQEGYLSSSSSSHSGSDSPTLDNSRRLPIFSRLSISDD
For B3, the binding result in test [7] is recorded as “no binding”.

B4: Flag-tagged mouse ZFP36L3 (pFlag-muL3), full length (protein, UniProt Q5ISE2 1-725)
chain: MANNNLNRPLNTNVADSSNSSSTPGTAPPPSSSDPQVLGHQAPSSSASSLTEDCSSSFARDLNSYNNGQSGATGAVSWEAPHEPSEANAVSQIHPRNGEHSLQQKPKPQKVSGSSSLATSERYKTELCRPFEESGICKYGHKCQFAHGYRELRTLSRHPKYKTEPCRTFHSVGFCPYGTRCHFIHNQPEQQPVLSESTLEEPSSFNGSNVLHLGVNGEQQPGLQSDSPSGFLSVNSQALQAPLQLNQQALSSGGVMPSSHPAAANLRMMCCRTSSSTTAHDADKDPDKDADKDPSNNSANDALAFPQEPGDFSPVAFQNPNTATTTPTAFYNNQQQMGLAASAQFQMPLARPLPSATIFGQASVGPALTPGAAMAPGAALAPAAALTPAAALAPGAAMALGAAMATGAAMATGAALTPGAALALGAAMAAGAALAPGAAMAPGAAMATGAALAFGAAMATGTTLTPGAAMALGAAMATGAALAPGAAVAPRAALAPRAAFAPGAAALAPRAALPPGAALTPGAALAPGAALAPRAALPPGATLRPGAALIPRAALAPGAALAPGAALTPGAALAPGATLAPRAALAPGAALAPRITITSRAAITPGVAIAPGVATASTGILAPGAATATVGNTSSTTITAATAAEGAAPHFTFQLPDVESESESESLEFDVVTSTLDSLLVSDDEDEDDFLRRSSSSSSLNESEFDNTNSSRRLPIFSRFSDSEK
In the case of B4, in test [8], the binding entry is “no binding”.
